How the values were obtained:
[1] = system: Duchenne muscular dystrophy mouse model (C57BL/10ScSn-Dmdmdx/J); assay: Duchenne muscular dystrophy mouse model; assay type: in vivo; details: 5 mg/kg subcutaneous 6 times a week for 3 weeks; versus Control
Description: The effects of the test substances on muscle diseases accompanied by muscle loss were evaluated in a Duchenne muscular dystrophy mouse model (C57BL/10ScSn-Dmdmdx/J) causing progressive muscle degeneration by genetic modification.
The mouse model was divided into a Control and an experimental group. PBS to the Control, and the fusion protein (SEQ ID NO: 2) to the experimental group were subcutaneously injected at a concentration of 5 mg/kg 6 times a week for 3 weeks. After 3 weeks, it was confirmed whether the fusion protein (SEQ ID NO: 2) improved the decline in muscle function caused by muscle degeneration by conducting a grip strength test (Control: n=9, No. 2: n=8).

[2] = system: db/db mouse model (C57BLKS/J-db/db); assay: Leptin receptor-deficient diabetes model study II; assay type: in vivo; details: 5 mg/kg subcutaneous 6 times a week for 11 weeks; versus control
Source text: In order to confirm efficacy of the fusion proteins in a diabetic pathological condition in which impaired glucose tolerance by genetically inducing mutation to a leptin receptor gene, a 9-week-old db/db mouse model (C57BLKS/J-db/db) was used. The mice after a one-week acclimation period were divided into a control (n=9) and an experimental group (fusion protein SEQ ID NO: 2; n=7). The mice was provided with a normal diet, and for 11 weeks, PBS to the control, and the fusion protein to the experimental group were subcutaneously injected at a dose of 5 mg/kg 6 times a week, and the efficacy thereof was observed.

[3] = system: diet-induced obesity-induced mouse model; assay: Diet-induced obesity-induced model study I; assay type: in vivo, C57BL/6N mice; details: versus Control
Description: (§1) In order to confirm the efficacy of the fusion protein against diseases according to obesity and further, sarcopenic obesity, disease induction was carried out in mice through diet-induced obesity. As an animal model, C57BL/6N was used, and was used after an acclimation period by providing normal diet for 1 week, and the housing conditions were maintained at 18~24° C., and 50~60% humidity, and ad libitum feeding with free access to feed and water was carried out during both the acclimation period and experimental period. In the mice after the acclimation period for 1 week, obesity was induced by a high-fat diet (Research Diets, Inc. D12492) to induce disease.
The mice in which obesity induction was completed were divided into a Control and an experimental group (Control: n=8, No. 1: n=6, No. 2: n=6), and PBS to the control group, and the fusion protein (SEQ ID NO: 1, 2) to the experimental group were subcutaneously injected at a dose 5 mg/kg 6 times a week for 10 weeks and the efficacy thereof was observed.

[4] = Half-life in mice by ELISA; assay type: in vivo; details: C57BL6/J mice, subcutaneous 5 mg/kg
Description: The half-life of the fusion protein was further measured by ELISA (Enzyme-Linked Immunosorbent Assay). Each test substance was subcutaneously injected to the C57BL6/J mice at a concentration of 5 mg/kg, and then blood was separated by time.
The separated blood was added to a 96-well plate coated with a capture antibody, and each well was washed with PBS (phosphate buffered saline) 3 times. A detection solution was added to each well and the wavelengths value thereof were read at 450 nm and analyzed.

[5] = system: SH-SY5Y dopaminergic neuron cell line; assay: MTT cell viability of neuron cells under rotenone; assay type: cell-based; details: 1 µM rotenone + 100 nM test substance, 24 hours; compared with rotenone alone
Description: The SH-SY5Y dopaminergic neuron cell line was treated with 1 µM of a toxic substance, rotenone and 100 nM of each test substance simultaneously. After 24 hours, the MTT cell viability or the effect of reducing reactive oxygen was observed.

MDA-MB-231 cells = assay: Breast cancer xenograft tumor model; assay type: in vivo, BALB/c nude mice; details: 7.5 mg/kg subcutaneous 6 times a week for 6 weeks; versus control
Description: MDA-MB-231 cells were injected into immune-deficient BALB/c nude mice, and tumors were allowed to form for one week to establish a xenograft tumor model. The mice in which tumors were formed were randomly divided into a control group and an experimental group (Control: n=8, No. 14: n=7), and PBS to the control group, and the fusion protein (SEQ ID NO: 14) to the experimental group were subcutaneously injected at a dose of 7.5 mg/kg 6 times a week for a total of 6 weeks.

[6] = system: sciatic nerve transection mouse model; assay: Sciatic nerve transection muscle atrophy model; assay type: in vivo, C57BL/6 male mice; details: versus control
Description: The effects of the test substances on muscle diseases accompanied by muscle loss were evaluated using a sciatic nerve transection mouse model.
In the sciatic nerve transection mouse model, muscle atrophy was induced as follows. The thigh muscles of C57BL/6 male mice were transversely incised to expose sciatic nerves, and then the sciatic nerves were transected to weaken the nerves in the muscle tissue and induce muscle atrophy. The incised site was sutured, and a recovery period of one week was provided after the surgery.
To each mouse after the recovery period, the test substance (Control-PBS; and fusion protein) assigned to each group was subcutaneously injected at a concentration of 5.0 mg/kg 6 times a week for 9 weeks (Control: n=8, No. 13: n=9, No. 14: n=9, No. 15: n=8). The effects of improving muscle loss were measured with an X-ray body composition analyzer (DXA assay) in the fourth week of test substance administration, and the effects of improving muscle function was compared by measuring grip strength.

[7] = system: diet-induced obesity-induced mouse model; assay: Diet-induced obesity-induced model study II (preventive); assay type: in vivo, C57BL/6N mice
Description: as §1
While obesity induction was in progress, it was confirmed whether the fusion protein prevents obesity and suppresses muscle loss induced by obesity. During providing a high-fat diet to the mice, the fusion protein (SEQ ID NO: 14) was subcutaneously injected at a dose of 5 mg/kg 8 times for a total of 6 weeks, and the efficacy thereof was observed (Control: n=11, No. 14: n=9).

[8] = 5 mg/kg subcutaneous 6 times a week for 10 weeks
[9] = after 3 weeks of administration
[10] = 5 mg/kg subcutaneous during high-fat diet, versus Control

Molecule | Grip strength [1] | Blood glucose level [2] | Blood sugar [3, 8] | Final body weight [3, 8] | Size of lipid droplets in liver tissue [3, 8] | Fat tissue mass (DXA assay) [3, 9] | Muscle mass (DXA assay) [3, 9] | Half-life [4] [h] | Cell viability (MTT) [5] | Final tumor size (tumor growth) (MDA-MB-231 cells) | Grip strength ([6]; 5.0 mg/kg subcutaneous 6 times a week for 9 weeks) | Muscle mass (DXA assay) ([6]; 5.0 mg/kg subcutaneous 6 times a week, fourth week) | Absolute value of muscle mass (DXA assay) ([7]; 5 mg/kg subcutaneous 8 times for 6 weeks during high-fat diet, Control 18.57±1.26) [g] | Final body weight ([7]; 5 mg/kg subcutaneous 8 times for 6 weeks during high-fat diet, Control 34.61±2.33) [g] | Fat tissue ratio [7, 10] | Muscle tissue ratio [7, 10] | Muscle function (grip strength test) ([7]; 5th week after administration)
SEQ ID NO: 2: Recombinant protein: Shortened substance (1-60)-repeat-type linker-Fc fusion (mutant modified) (protein) GSDQSENVDRGAGSIREAGGAFGKREQAEEERYFRAQSREQLAALKKHHEEEIVHHKKEIGGGGSGGGGSGGGGS[human IgG1 Fc with changes omitted here] | significantly improved | significantly reduced | reduced | reduced at a significant level | significantly reduced | significant decrease | maintained | 45.6 | significantly increased |  |  |  |  |  |  |  | 
SEQ ID NO: 14: Recombinant protein: Shortened substance (1-60)-Shortened linker-Fc fusion (protein) GSDQSENVDRGAGSIREAGGAFGKREQAEEERYFRAQSREQLAALKKHHEEEIVHHKKEIGGGGS[human IgG1 Fc with C220Q (EU numbers) omitted here] |  |  |  |  |  |  |  |  |  | significant effect of inhibiting tumor growth | higher performance | significantly increased | 20.46 ± 2.71 | 32.99 ± 2.55 | decrease | increase | improved
